# Experimental data as given in the supplement of paper PMC10037445.
# The full ranking holds about 2,900 compounds; the median of “NF-kB SEAP reporter activity, fold change vs agonist alone” is about 0.99, and the highest 2% start at about 2.6. The list shows a part of the results.
# Key:
# RAW-Dual [1] = assay: NF-kB SEAP reporter activity, fold change vs agonist alone; higher = enhanced NF-kB activity
# How it was run: (§1)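 After 50 nL of library stock was delivered by pin tool to RAW-Dual macrophages (50,000 cells/well, DMEM, 384-well plates), a PRR agonist was added 1 h later and the plates were kept at 37 °C, 5% CO2. Twenty hours later, IRF was read from supernatant by QuantiLuc luminescence and NF-κB by QuantiBlue absorbance at 620 nm. Reporter activity is stated as fold change over agonist-alone wells. Wells with IncuCyte confluency under 70% of agonist controls in both mask sets were counted as cytotoxic.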
# RAW-Dual [2] = assay: NF-kB SEAP reporter activity, fold change vs agonist alone; cytotoxicity flag (confluency mask): not cytotoxic; higher = enhanced NF-kB activity
# How it was run: as §1
# RAW-Dual [3] = assay: NF-kB SEAP reporter activity, fold change vs agonist alone; cytotoxicity flag (confluency mask): cytotoxic (confluency <70% of control); higher = enhanced NF-kB activity
# How it was run: as §1
# [4] = library stock concentration (final ~1000-fold dilution): 10 mM, cytotoxicity flag (confluency mask): not cytotoxic, agonist: Imiquimod (TLR7) […]
# [5] = library stock concentration (final ~1000-fold dilution): 10 mM, cytotoxicity flag (confluency mask): not cytotoxic, agonist: MPLA (TLR4) […]
# [6] = agonist: ODN 1826 (TLR9) 0.5 ug/mL
# [7] = agonist: Pam2CSK4 (TLR2/6) 0.1 ug/mL
# [8] = agonist: Pam3CSK4 (TLR2/1) 0.1 ug/mL
# [9] = library stock concentration (final ~1000-fold dilution): 2 mM, cytotoxicity flag (confluency mask): not cytotoxic, agonist: MPLA (TLR4) […]
# [10] = library stock concentration (final ~1000-fold dilution): 10 mM, cytotoxicity flag (confluency mask): cytotoxic (confluency <70% of control), agonist: MPLA (TLR4) […]
# [11] = library stock concentration (final ~1000-fold dilution): 2 mM, cytotoxicity flag (confluency mask): not cytotoxic, agonist: Imiquimod (TLR7) […]
compound,measurement,setting,value
CCNC1CN(CCCOC)S(=O)(=O)c2sc(S(N)(=O)=O)cc21 (centres undefined),NF-kB SEAP reporter activity,RAW-Dual [1]; [4],1.1
same,NF-kB SEAP reporter activity,RAW-Dual [1]; [5],1.07
CNC(=O)c1c(C)oc2cc(Oc3ncnc4cc(OC)c(OC)cc34)ccc12,NF-kB SEAP reporter activity,RAW-Dual [1]; [4],0.938
same,NF-kB SEAP reporter activity,RAW-Dual [1]; [5],1.11
CNC(=O)c1c(C)oc2cc(Oc3ncnc4cc(OC)c(OC)cc34)ccc12 (library stock concentration (final ~1000-fold dilution): 10 mM),NF-kB SEAP reporter activity,RAW-Dual [2]; agonist: LPS (TLR4) 0.1 ug/mL,0.944
same,NF-kB SEAP reporter activity,RAW-Dual [2]; [6],1.17
same,NF-kB SEAP reporter activity,RAW-Dual [2]; [7],1.03
same,NF-kB SEAP reporter activity,RAW-Dual [2]; [8],1.2
COc1cc2ncnc(Nc3ccc(Cl)cc3F)c2cc1OC,NF-kB SEAP reporter activity,RAW-Dual [1]; [4],1.44
same,NF-kB SEAP reporter activity,RAW-Dual [1]; [5],1.19
COc1cc2ncnc(Nc3ccc(Cl)cc3F)c2cc1OC (library stock concentration (final ~1000-fold dilution): 10 mM),NF-kB SEAP reporter activity,RAW-Dual [2]; agonist: LPS (TLR4) 0.1 ug/mL,1.63
same,NF-kB SEAP reporter activity,RAW-Dual [2]; [6],0.863
same,NF-kB SEAP reporter activity,RAW-Dual [2]; [7],1.14
same,NF-kB SEAP reporter activity,RAW-Dual [2]; [8],1.36
COc1cc(CCC(=O)CC(O)CCc2ccc(O)c(OC)c2)ccc1O (centres undefined) (library stock concentration (final ~1000-fold dilution): 10 mM),NF-kB SEAP reporter activity,RAW-Dual [2]; agonist: LPS (TLR4) 0.1 ug/mL,1.4
same,NF-kB SEAP reporter activity,RAW-Dual [2]; [6],1.07
same,NF-kB SEAP reporter activity,RAW-Dual [2]; [7],0.979
same,NF-kB SEAP reporter activity,RAW-Dual [2]; [8],1.25
COc1cc(CCC(=O)CC(O)CCc2ccc(O)c(OC)c2)ccc1O (centres undefined),NF-kB SEAP reporter activity,RAW-Dual [1]; [4],1.04
same,NF-kB SEAP reporter activity,RAW-Dual [1]; [5],1.1
Cc1[nH]c(C=C2C(=O)Nc3ccc(F)cc32)c(C)c1C(=O)NCCN1CCCC1,NF-kB SEAP reporter activity,RAW-Dual [1]; [9],0.63
Cc1[nH]c(C=C2C(=O)Nc3ccc(F)cc32)c(C)c1C(=O)NCCN1CCCC1 (library stock concentration (final ~1000-fold dilution): 2 mM),NF-kB SEAP reporter activity,RAW-Dual [2]; agonist: LPS (TLR4) 0.1 ug/mL,1.04
same,NF-kB SEAP reporter activity,RAW-Dual [2]; [6],0.183
same,NF-kB SEAP reporter activity,RAW-Dual [2]; [7],0.266
same,NF-kB SEAP reporter activity,RAW-Dual [2]; [8],0.414
Cl.Cl.Cn1cc(CNCC2CCN(c3ncc(C(=O)NO)cn3)CC2)c2ccccc21,NF-kB SEAP reporter activity,RAW-Dual [1]; [10],2.65
Cl.Cl.Cn1cc(CNCC2CCN(c3ncc(C(=O)NO)cn3)CC2)c2ccccc21 (library stock concentration (final ~1000-fold dilution): 10 mM),NF-kB SEAP reporter activity,RAW-Dual [3]; agonist: LPS (TLR4) 0.1 ug/mL,7.01
CCc1ccc(Cc2ccc3c(c2)C2(OC3)OC(CO)C(O)C(O)C2O)cc1.O (centres undefined) (library stock concentration (final ~1000-fold dilution): 10 mM),NF-kB SEAP reporter activity,RAW-Dual [2]; agonist: LPS (TLR4) 0.1 ug/mL,1.14
same,NF-kB SEAP reporter activity,RAW-Dual [2]; [6],1.01
same,NF-kB SEAP reporter activity,RAW-Dual [2]; [7],1.05
same,NF-kB SEAP reporter activity,RAW-Dual [2]; [8],0.931
CCc1ccc(Cc2ccc3c(c2)C2(OC3)OC(CO)C(O)C(O)C2O)cc1.O (centres undefined),NF-kB SEAP reporter activity,RAW-Dual [1]; [4],0.928
same,NF-kB SEAP reporter activity,RAW-Dual [1]; [5],1.07
Cc1[nH]c(/C=C2\C(=O)Nc3ccccc32)c(C)c1CCC(=O)O (library stock concentration (final ~1000-fold dilution): 10 mM),NF-kB SEAP reporter activity,RAW-Dual [2]; agonist: LPS (TLR4) 0.1 ug/mL,0.732
same,NF-kB SEAP reporter activity,RAW-Dual [2]; [6],0.877
same,NF-kB SEAP reporter activity,RAW-Dual [2]; [7],0.622
same,NF-kB SEAP reporter activity,RAW-Dual [2]; [8],0.768
Cc1[nH]c(/C=C2\C(=O)Nc3ccccc32)c(C)c1CCC(=O)O,NF-kB SEAP reporter activity,RAW-Dual [1]; [4],0.702
same,NF-kB SEAP reporter activity,RAW-Dual [1]; [5],0.789
CC(=O)N1CCN(c2ccc(OCC3COC(Cn4ccnc4)(c4ccc(Cl)cc4Cl)O3)cc2)CC1 (centres undefined),NF-kB SEAP reporter activity,RAW-Dual [1]; [11],0.996
same,NF-kB SEAP reporter activity,RAW-Dual [1]; [9],1.09
CC(=O)N1CCN(c2ccc(OCC3COC(Cn4ccnc4)(c4ccc(Cl)cc4Cl)O3)cc2)CC1 (centres undefined) (library stock concentration (final ~1000-fold dilution): 2 mM),NF-kB SEAP reporter activity,RAW-Dual [2]; agonist: LPS (TLR4) 0.1 ug/mL,1.28
same,NF-kB SEAP reporter activity,RAW-Dual [2]; [6],0.888
same,NF-kB SEAP reporter activity,RAW-Dual [2]; [7],1.04
same,NF-kB SEAP reporter activity,RAW-Dual [2]; [8],0.972
CN(C)CCC=C1c2ccccc2CCc2ccccc21.Cl,NF-kB SEAP reporter activity,RAW-Dual [1]; [4],1.69
same,NF-kB SEAP reporter activity,RAW-Dual [1]; [5],1.29
CN(C)CCC=C1c2ccccc2CCc2ccccc21.Cl (library stock concentration (final ~1000-fold dilution): 10 mM),NF-kB SEAP reporter activity,RAW-Dual [2]; agonist: LPS (TLR4) 0.1 ug/mL,1.1
same,NF-kB SEAP reporter activity,RAW-Dual [2]; [6],0.968
same,NF-kB SEAP reporter activity,RAW-Dual [2]; [7],0.799
same,NF-kB SEAP reporter activity,RAW-Dual [2]; [8],0.946
CC(C)c1cnn2c(NCc3ccccc3-n3cccn3)nc(OC3CCCNC3)nc12 (centres undefined) (library stock concentration (final ~1000-fold dilution): 10 mM),NF-kB SEAP reporter activity,RAW-Dual [3]; agonist: LPS (TLR4) 0.1 ug/mL,0.317
same,NF-kB SEAP reporter activity,RAW-Dual [3]; [6],0.182
same,NF-kB SEAP reporter activity,RAW-Dual [3]; [7],0.0648
same,NF-kB SEAP reporter activity,RAW-Dual [3]; [8],0.259
CC(C)c1cnn2c(NCc3ccccc3-n3cccn3)nc(OC3CCCNC3)nc12 (centres undefined),NF-kB SEAP reporter activity,"RAW-Dual [1]; library stock concentration (final ~1000-fold dilution): 10 mM, cytotoxicity flag (confluency mask): cytotoxic (confluency <70% of control), agonist: Imiquimod (TLR7) […]",0.13
same,NF-kB SEAP reporter activity,RAW-Dual [1]; [10],0.256
CNc1ncc2cc(-c3cc(NC(=O)NCCC(C)(C)C)c(F)cc3C)c(C)nc2n1 (library stock concentration (final ~1000-fold dilution): 2 mM),NF-kB SEAP reporter activity,RAW-Dual [2]; agonist: LPS (TLR4) 0.1 ug/mL,1.42
same,NF-kB SEAP reporter activity,RAW-Dual [2]; [6],0.533
same,NF-kB SEAP reporter activity,RAW-Dual [2]; [7],0.218
same,NF-kB SEAP reporter activity,RAW-Dual [2]; [8],0.28
CNc1ncc2cc(-c3cc(NC(=O)NCCC(C)(C)C)c(F)cc3C)c(C)nc2n1,NF-kB SEAP reporter activity,RAW-Dual [1]; [11],0.497
same,NF-kB SEAP reporter activity,RAW-Dual [1]; [9],0.918
CC1(C)SC2C(NC(=O)C(N)c3ccccc3)C(=O)N2C1C(=O)OCOC(=O)C1N2C(=O)CC2S(=O)(=O)C1(C)C (centres undefined) (library stock concentration (final ~1000-fold dilution): 10 mM),NF-kB SEAP reporter activity,RAW-Dual [2]; agonist: LPS (TLR4) 0.1 ug/mL,1.06
same,NF-kB SEAP reporter activity,RAW-Dual [2]; [6],0.886
same,NF-kB SEAP reporter activity,RAW-Dual [2]; [7],1.16
same,NF-kB SEAP reporter activity,RAW-Dual [2]; [8],0.993
CC1(C)SC2C(NC(=O)C(N)c3ccccc3)C(=O)N2C1C(=O)OCOC(=O)C1N2C(=O)CC2S(=O)(=O)C1(C)C (centres undefined),NF-kB SEAP reporter activity,RAW-Dual [1]; [5],1.07
COc1ccc2cccc(CCNC(C)=O)c2c1 (library stock concentration (final ~1000-fold dilution): 10 mM),NF-kB SEAP reporter activity,RAW-Dual [2]; agonist: LPS (TLR4) 0.1 ug/mL,1.33
same,NF-kB SEAP reporter activity,RAW-Dual [2]; [6],1.09
same,NF-kB SEAP reporter activity,RAW-Dual [2]; [7],1.03
same,NF-kB SEAP reporter activity,RAW-Dual [2]; [8],1.19
COc1ccc2cccc(CCNC(C)=O)c2c1,NF-kB SEAP reporter activity,RAW-Dual [1]; [4],0.972
same,NF-kB SEAP reporter activity,RAW-Dual [1]; [5],0.963
